{
  "source": "PubChem BioAssay AID504332",
  "about": "(National Center for Advancing Translational Sciences (NCATS), 2011)",
  "note": "Screen size: about 350,000 compounds; about 31,000 (8.9%) were called active. The inconclusive results got no clear call from the source; some entries with a clear call stand among them for comparison. The call rests on the fitted dose curve; in most records, active means well fitted inhibition curve with a large enough effect; inconclusive means small, poorly fitted or top-dose-only effect; inactive means no such curve, though single readings can be large or run the other way. A potency beside an inconclusive call is a rough fit, not a confirmed value. On the % scale 0 is the no-effect control and ±100 the full control effect; potency means the concentration at half of the fitted maximal effect; tags describe the fitted curve by direction and shape.",
  "data": [
    {"molecular_target": "Histone-lysine N-methyltransferase EHMT2 (Homo sapiens) (UniProt Q96KQ7)", "sequence (Q96KQ7 whole entry, looked up)": "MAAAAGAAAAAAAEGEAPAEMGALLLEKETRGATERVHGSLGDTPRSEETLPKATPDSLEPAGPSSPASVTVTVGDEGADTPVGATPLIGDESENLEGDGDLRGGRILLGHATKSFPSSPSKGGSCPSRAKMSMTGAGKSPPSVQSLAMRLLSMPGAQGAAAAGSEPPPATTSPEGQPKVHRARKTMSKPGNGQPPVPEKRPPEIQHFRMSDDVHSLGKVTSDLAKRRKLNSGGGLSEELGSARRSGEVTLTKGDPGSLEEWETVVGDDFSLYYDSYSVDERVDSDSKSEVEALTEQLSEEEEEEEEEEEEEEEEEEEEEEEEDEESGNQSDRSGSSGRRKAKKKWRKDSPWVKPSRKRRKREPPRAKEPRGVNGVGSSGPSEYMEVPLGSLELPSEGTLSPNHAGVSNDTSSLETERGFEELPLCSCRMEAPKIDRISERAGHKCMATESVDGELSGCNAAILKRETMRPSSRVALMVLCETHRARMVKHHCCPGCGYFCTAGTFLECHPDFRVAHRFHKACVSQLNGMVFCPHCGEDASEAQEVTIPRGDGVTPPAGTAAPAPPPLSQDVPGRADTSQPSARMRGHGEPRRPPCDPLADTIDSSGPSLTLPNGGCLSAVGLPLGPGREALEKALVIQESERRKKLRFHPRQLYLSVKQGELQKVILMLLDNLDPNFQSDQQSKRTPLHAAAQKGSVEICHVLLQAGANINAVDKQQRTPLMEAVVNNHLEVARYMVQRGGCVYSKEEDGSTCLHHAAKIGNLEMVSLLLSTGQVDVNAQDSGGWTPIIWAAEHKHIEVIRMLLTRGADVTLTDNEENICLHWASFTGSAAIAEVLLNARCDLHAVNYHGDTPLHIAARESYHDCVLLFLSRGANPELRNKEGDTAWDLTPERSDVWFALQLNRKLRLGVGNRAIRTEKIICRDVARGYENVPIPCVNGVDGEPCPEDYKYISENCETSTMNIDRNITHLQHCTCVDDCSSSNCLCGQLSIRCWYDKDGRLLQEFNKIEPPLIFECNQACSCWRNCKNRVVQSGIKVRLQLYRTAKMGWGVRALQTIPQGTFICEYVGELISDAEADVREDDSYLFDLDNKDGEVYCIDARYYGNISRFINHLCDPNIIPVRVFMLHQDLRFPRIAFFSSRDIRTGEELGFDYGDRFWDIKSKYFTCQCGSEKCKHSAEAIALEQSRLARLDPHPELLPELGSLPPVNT", "test": "qHTS Assay for Inhibitors of Histone Lysine Methyltransferase G9a; further: nearly all actives have a fitted effect of over 75% in size", "conditions": "G9a H3K9 monomethylation, AlphaScreen, 2 h; activity, negative = inhibition: at 59 µM (top of the series) unless noted", "outline": "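Compounds were preincubated with 20 nM G9a for 15 min, after which biotinylated H3K9 peptide (500 nM) and SAM (20 uM) started a 2 h room-temperature reaction. Monomethylated product was quantified by antibody-based AlphaScreen chemiluminescence.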", "values": [
      {"smiles": "Cc1c(CN(C)C)c2c(n1C)C(=O)c1ccc(Br)cc1-2", "Potency": "inconclusive: 28.2 µM [inhibitor, single point]"},
      {"smiles": "CCOc1ccc(N(CC(=O)NCC2CCCO2)S(=O)(=O)c2ccc(OC)c(OC)c2)cc1", "note": "(centres undefined)", "Potency": "inconclusive: 35.5 µM [inhibitor, single point]"},
      {"smiles": "CCN(CC)c1ccc(/C=N/N2C(C)CCCC2C)c(O)c1", "note": "(centres undefined)", "Potency": "active: 44.7 µM"},
      {"smiles": "CCNc1nc(NCC)nc(OCC(=O)O)n1", "Potency": "inconclusive: 63.1 µM [inhibitor, partial curve, poor fit]"},
      {"smiles": "O=C1CC(N2CCCCCC2)C(=O)N1c1ccc(F)cc1", "note": "(centres undefined)", "Potency": "active: 11.2 µM"},
      {"smiles": "COc1ccc(N2CCN(C(=O)CCc3cc(OC)c(OC)c(OC)c3)CC2)cc1", "Potency": "inconclusive: 7.08 µM [inhibitor, single point]"},
      {"smiles": "c1ccc(CN2CCC(Nc3nc(-c4cccs4)nc4ccccc34)CC2)cc1", "Potency": "active: 35.5 µM"},
      {"smiles": "C=C(C)Cn1c(SCC(=O)c2ccc(Br)cc2)nc2sc3c(c2c1=O)CCCC3", "activity, negative = inhibition": "inactive: 11.6%"},
      {"smiles": "Nc1nc(Nc2ccccc2)sc1C(=O)c1ccccc1", "Potency": "active: 44.7 µM"},
      {"smiles": "Cc1ccc(NC(=S)NC(NC(=O)N(C)C)C(Cl)(Cl)Cl)cc1", "note": "(centres undefined)", "Potency": "inconclusive: 5.01 µM [inhibitor, full curve, poor fit]"},
      {"smiles": "Cc1cc(=O)[nH]c(SCC(=O)c2ccccc2)c1C#N", "activity, negative = inhibition": "inconclusive: -76.2% [inhibitor]"},
      {"smiles": "Cc1cc(=O)oc2cc(OC(=O)c3ccccc3)ccc12", "Potency": "inconclusive: 20 µM [inhibitor, partial curve, poor fit]"},
      {"smiles": "CC(C)(C)NC(=O)NC(=O)CN1CCN(c2ncc(C(F)(F)F)cc2Cl)CC1", "Potency": "inconclusive: 3.55 µM [inhibitor, full curve, poor fit]"},
      {"smiles": "CC(=O)c1ccc(NC(=O)Nc2sc3nc4n(c(=O)c3c2C)CCC(C)CC4)cc1", "note": "(centres undefined)", "activity, negative = inhibition": "inactive: -35.2%"},
      {"smiles": "Cc1ccc(-n2c(SCC(=O)NCCN3C(=O)CSC3=O)nnc2-c2ccccc2F)cc1", "Potency": "inconclusive: 89.1 µM [inhibitor, single point]"},
      {"smiles": "CC(C)c1ccc(Nc2nnc(SCC(=O)Nc3ncc(S(=O)(=O)c4ccc([N+](=O)[O-])cc4)s3)s2)cc1", "Potency": "active: 35.5 µM"},
      {"smiles": "COc1ccc(NC(=O)c2c(Nc3ccccc3)sc(C(=O)c3ccc(F)cc3)c2N)cc1", "Potency": "inconclusive: 3.16 µM [inhibitor, single point]"},
      {"smiles": "COc1ccc([C@]23Cc4cc(OC)c(OC)cc4C(O2)c2c(c4ccccc4oc2=O)O3)cc1", "Potency": "inconclusive: 1 µM [inhibitor, single point]"},
      {"smiles": "Cc1ccc2c(c1)NC(=O)c1cccnc1N2", "Potency": "active: 44.7 µM"},
      {"smiles": "Cc1ccc(NC(=O)c2cccc(S(=O)(=O)N(C)C3CCCCC3)c2)nc1", "activity, negative = inhibition": "inactive: -17.2% [at 102 µM]"},
      {"smiles": "CCOC(=O)c1cc2c(ccn2C)n1CC(=O)N(Cc1ccccc1)c1ccc(F)cc1", "Potency": "active: 28.2 µM"},
      {"smiles": "CCc1ccc2occ(CC(=O)Nc3ccc(OC)c(Cl)c3)c2c1", "activity, negative = inhibition": "inactive: -3.75%"},
      {"smiles": "CCOC(=O)c1c(NC(=O)CCCN2CCOCC2)sc2c1CC(C)(C)OC2", "Potency": "inconclusive: 56.2 µM [inhibitor, single point]"},
      {"smiles": "CC(C)c1ccc(CNC(=O)c2ccc(N3CCCC3)c(NC(=O)NCc3ccccc3)c2)cc1", "activity, negative = inhibition": "inactive: -2.24%"},
      {"smiles": "Nc1c(C(=O)NCc2ccco2)c2nc3ccccc3nc2n1CCc1ccccc1", "Potency": "inconclusive: 100 µM [inhibitor, single point]"},
      {"smiles": "O=C(CN1CCOCC1)Nc1ccc(Br)cc1", "activity, negative = inhibition": "inactive: 16.4% [at 102 µM]"},
      {"smiles": "O=C(O)c1cccc(-n2c(O)c(C=C3N=c4ccccc4=N3)sc2=S)c1", "Potency": "active: 50.1 µM"},
      {"smiles": "COc1ccc2oc(C(=O)OCC(=O)N3CCN(S(=O)(=O)c4ccccc4)CC3)c(C)c2c1", "Potency": "active: 50.1 µM"},
      {"smiles": "COc1ccccc1CNC(=O)CCS(=O)(=O)c1cccc2nonc12", "Potency": "inconclusive: 89.1 µM [inhibitor, partial curve, poor fit]"},
      {"smiles": "Cc1ccc(O)c(-c2cc3ccccc3[nH]2)c1", "activity, negative = inhibition": "inconclusive: -98.5% [inhibitor]"},
      {"smiles": "O=P(O)(O)c1cc(-c2ccccc2)oc1-c1ccccc1", "Potency": "inconclusive: 89.1 µM [inhibitor, single point]"},
      {"smiles": "O=C(NNC(=O)c1sc2cccc(Cl)c2c1Cl)Nc1ccccc1", "activity, negative = inhibition": "inactive: -2.2%"},
      {"smiles": "N#C/C(=C/c1ccc(N2CCCCCC2)o1)c1cccc(F)c1", "Potency": "inconclusive: 1.58 µM [inhibitor, partial curve, poor fit]"},
      {"smiles": "Cc1ccc(Cl)cc1NC(=O)CCCN1C(=O)c2cccnc2C1=O", "Potency": "inconclusive: 79.4 µM [inhibitor, partial curve, poor fit]"},
      {"smiles": "NC(=O)[C@@H]1CCNc2c(I)cc([N+](=O)[O-])cc2C(=O)N[C@@H](CO)C(=O)N[C@@H](Cc2ccc(O)cc2)C(=O)N1", "Potency": "active: 10 µM"},
      {"smiles": "CC1=NN2C(=N)/C(=C\\c3cc(C)n(-c4ccccc4)c3C)C(=O)N=C2S1", "Potency": "inconclusive: 79.4 µM [inhibitor, partial curve, poor fit]"},
      {"smiles": "O=C(COC(=O)c1cccc(O)c1)NC(=O)Cc1ccccc1", "Potency": "inconclusive: 25.1 µM [inhibitor, partial curve, poor fit]"},
      {"smiles": "Cc1[nH]c2ccccc2c1C1(O)C(=O)N(Cc2ccccc2)c2ccc(Cl)cc21", "note": "(centres undefined)", "Potency": "inconclusive: 28.2 µM [inhibitor, single point]"},
      {"smiles": "Cc1noc(C)c1COC(=O)c1cccnc1SCC(=O)Nc1ccc2c(c1)OCO2", "Potency": "inconclusive: 89.1 µM [inhibitor, single point]"},
      {"smiles": "COc1ccc(N2CCN(C(=O)c3cc(S(=O)(=O)N4CCCCCC4)ccc3OC)CC2)cc1", "Potency": "active: 50.1 µM"},
      {"smiles": "O=C(NCCN1CCOCC1)c1ccc2c(c1)N(Cc1cccc(F)c1)C(=O)c1ccccc1S2", "Potency": "inconclusive: 39.8 µM [inhibitor, full curve]"},
      {"smiles": "CC(=O)N1CCCc2cc(S(=O)(=O)N3CCCC(C(=O)NC(C)C)C3)ccc21", "note": "(centres undefined)", "activity, negative = inhibition": "inactive: 4.69%"},
      {"smiles": "COc1ccc(N(C=O)C(=S)SC)cc1", "Potency": "inconclusive: 89.1 µM [inhibitor, single point]"},
      {"smiles": "O=C(O)c1sccc1SCc1ccc(Cl)cc1Cl", "Potency": "inconclusive: 89.1 µM [inhibitor, single point]"}
    ]}
  ]
}
